The RNAGym collection of RNA variant scans (doi:10.7554/elife.90254)
The source gives no read counts; variants with many changes may rest on few reads.

B1: OR4K15 (parent)
chain: GUUAACGGUCAUAGGCCAUGGAAACUAGGAGCACCAUUUCGCUGCCAGUGAAGAAAUGAACAAAGAAAAUCUGGGCCAGGCAGGCAUCAAAAGAAAUAGUCUUGCGCUCAACCAGAAAGUCUGUAAUCAUUUUAAGGGUA

Variants of: B1
Assay: self-cleavage, relative activity (ratio to wild type); higher = more cleavage; in vitro, sequencing; the parent is a self-cleaving ribozyme

Row | Variant | self-cleavage
1 | GUUAAUGGUCAUAGGCCAUGGAAACUAGGAGCACCAUUUCGCUGCCAGUGAAGAAAUGAACAAAGAAAAUCUGGGCCAGGCAGGCAUCGAAAGAAAUAGUCUUGCGCUCAGCCAGAAAGUCUGUAAUCAUUUUAAGGGUA [C6U A89G A111G] | 0.03
2 | GUUAAUGGUCAUAGGCCAUGGAAACUAGGAGCACCAUUUCGCUGCCAGUGAAGAAAUGAGCAAAGAAAAUCUGGGCCAGGCAGGCAUCAAAAGAAAUAGUCUUGCGCUCAACCAGAAAGUCUGUAAUCAUUUUAAGGGUG [C6U A60G A140G] | 0.48
3 | GUUAAUGGUCAUAGGCCAUGGAAACUAGGAGCACCAUUUCGCUGCCAGUGAAGAAAUGAACAAAGAAAAUCUGGGCCAGGCUGGCACCAAAAGAAAUAGUCUUGCGCUCAACCAGAGAGUCUGUAAUCAUUUUAAGGGUA [C6U A82U U87C A117G] | 0.05
4 | GUUAAUGGUCAUAGGCCAUGGAAACUAGGAGCACCAUUUCGCUGCCAGUGAAGAAAUGAACAAAUAAAAUCUGGGCCAGGCAGGCAUCGAAAGAAAUAGUCUUGCGCUCAACCAGAAAGUCUGUAAUCAUUCUAAGGGUA [C6U G65U A89G U132C] | 0.63
5 | GUUAACAGUCAUAGGCCAUGGAGACUAGGAGCACCAUUUCGCUGCCAGCGAAGAAAUGAAUAAAGAAAAUCUGGGCCAGGCAGGCAUCAAAAGAAAUAGUCUUGCGCUCAACCAGAAAGUCUGUAAUCACUUUAAGGGUA [G7A A23G U49C C61U U130C] | 0.83
6 | GUUAAUGGUCAUAGGCCAUGGAGCCUAGGAGCACCAUUUCGCUGCCAGUGAAGGAAUGAACUAAGUAAAUCUGGGCCAGGCAGGCAUCAAAAGAAAUAGUCUUGCGCUCAACCAGAAAGUCUGUAAUCAUUUUAAGGGUA [C6U A23G A24C A54G A62U A66U] | 0.64
7 | GUUAACAGUCAUGGGCCAUGGAAACUAGGAGCACCAUUUCGCUGACAGUGAAGAAAUGAACAAAGAAAAUCUGGGCCAGGCAGGCAUCAAAAGAAAUAGUCUUGCGCUCAACCAGAAAGUCUGUAAUCAUUUUAAGGGUA [G7A A13G C45A] | 1.49
8 | GUUAAGGGUCAUAGGCCAUGGAAGCUAGGAGCACCAUUUCGCUGCCAGUGAAGAAACGAACAAAGAAUAUCUGGGCCAGGCAGGCAUCAAAAGAAAUAGUCUUGCGCUCAACCAGAAAGUCUGUAAUCAUUUUAAGGGUA [C6G A24G U57C A68U] | 1.15
9 | GUUAAUGGUCAUAGGCCAUGGAAACUAGGAGCACCAUUUCGCUGCCAGUGAAGAAAUGAACAAAGGAAAUCUGGGCCGGGCAGGCAUCAAAAGAAAUAGUCUUGCGCUCAACCAGAAAGUCUGUAAUCAUUUUAAGGGUA [C6U A66G A78G] | 0.32
10 | GUUAAUGGUCAUAGGCCAUGGAAAAUAGGAGCACCAUUUCGCUGCCAGUGAAGAAAUGAACAAAGAAAAUCUGGGCCAGGCAGGCAUCAAAAGAAAUAGUCUUGCGCUCAACCAGAAAGUCUGUAAUCAUUCUAAGGGUG [C6U C25A U132C A140G] | 1.06
11 | GUUAACAGUCAUAGGCCAUGGGAACUAGGAGCGCCAUUUCGCCGCCAGUGAAGAAAUGAACAAAGAAAAUCUGGGCCAGGCAGGCAUCAAAAGAAAUAGUCUUGCGCUCAACCAGAAAGUCUGUAAUCAUUUUAAGGGUA [G7A A22G A33G U43C] | 1.06
12 | GUUAACAGUCAUUGGCCAUGGAAACUAGGAGCACCAUUUCGCUGCCAGUGAAGAAAUGAACAAAGAAAAUCUGGGCCAGGCAGGCAUCAAAAGAAAUAGUCUUGCGCUCAACCAGAAAGUCAGUAACCAUUUUAAGGGUA [G7A A13U U122A U127C] | 0.68
13 | GUUAACAGUCUUAGGCCAUGGAAACUAGGAGCACCACUUCGCUGCCAGUGAAGAAAUGAACAAAGAAAAUCUGGGCCAGGCAGGCAUCAAAAGAAAUAGUCUUGUGCUCAACCAGAAAGUCUGUAAUCAUUUUAAGGGUA [G7A A11U U37C C105U] | 0.19
14 | GUUAAUGGUCAUAGGCCAUGGAAACUGGGAGCACCAUUUCGCUGCCAGUGGAGAAAUGAACAAAGAAAAUCUGGGCCAGGCAGGCAUCAAAAGGAAUAGCCUUGCGCUCAACCAGAAAGUCUGUAAUCAUUUUAAGGGUA [C6U A27G A51G A94G U100C] | 0.89
15 | GUUAAAGGUCAUAGGCCAUGGAAACUAGGAGCACCAUUUCGCUGCCAGUGAAGAAAUGAACAAAGAAAAUCUGGGCCAGGCAGGCAACAAAAGAAAUAGUCUUGCGCUCAACCAGAAAGUCUGUAACCAUUUUAAGGGUA [C6A U87A U127C] | 0.61
16 | GUUAAUGGUCGUAGGCCAUGGAAACUGGGAGCACCAUUUCGCUGCCAGUGAAGAAAUGAGCAAAGAAAAUCUGGGCCAGGCAGGCAUCAAAAGAAAUAGUCUUGCGCUCAACCAGAAAGUCUGUAAUCAUUUUAAGGGUA [C6U A11G A27G A60G] | 0.56
17 | GUUAAAGGUCAUAGGCCAUGGAAACCAGGAGCACCAUUCCGCUGCCAGUGAAGAAAUGAACAAAGAAAGUCUGGGCCAGGCAGGCAUCAAAAGAAAUAUUCUUGCGCUCAACCAGAAAGUCUGUAAUCAUUUUAAGGGUA [C6A U26C U39C A69G G99U] | 0.5
18 | GUUAAUGGUCAUAGGCCACGGAAACUAGGAGCACCAUUUCGUUGCCAGUGAAGAAAUGGACAAAGAAAAUCUGGGCCAGGCAGGCAUCAAAAGAAAUAGUCUUGCGCUCAACCAGAAAGUCUGUAAUCAUUUUAAGGGUA [C6U U19C C42U A59G] | 1.35
19 | GUUAAAGGUCAUAGGCCAUGGAAACUAGGAGCACCAUUUCGCUGCCAGCGAAGAAAUGAACAAAGAAAAUCUGGGCCAGGCGAGCAUCAAAAGAAAUAGUCUUGCGCUCAACCAGAAAGUCUGUAAUCAUUUUAAGGGUA [C6A U49C A82G G83A] | 0.34
20 | GUUAAGGGUCAUAGGCCAUGGAAACUAGGAGCACCAUUUCGCUGCCAGUGAAGAAAUGAACAAAGAAAAUCUGGGCCAGGCAGGCAUCAAGAGAAAUAGUCUUGCGCUCAACCGGAAAGUCUGUAAUCAUUUUAAGGGUA [C6G A91G A114G] | 0.49
21 | GUUAAUGGUCAUAGGCCAUGGAAACUAGGAGCACCAUUUCGCUGCCAGUGAAGAAAUGAACUAAGAAAAUCCGGGCCAGGCAGGCAUCAAAAGAAAUAGUCUAGCGCUCAACCAGAAAGUCUGUAAUCAUUUUAAGGGUA [C6U A62U U72C U103A] | 0

Row | Variant | self-cleavage
22 | GUUAAUGGGCAUAGGCCAUGGAAACUAGGAGCGCCAUUUCGCUGCCUGUGAAGAAAUGAACAAAGAAAAUCUGGGCCAGGCAGGCAUCAAAGGAAAUAGUCUUGCGCUCAACCAGAAAGUCUGUAAUCAUUUUAAGGGUA [C6U U9G A33G A47U A92G] | 0.31
23 | GUUAAUGGUCAUAGGCCAUGGAAACUAGGAGCACCGUUUCGCUGCCAGUGAAGAAAUGAACAAAGAAAAUCUGGACCAGGCAGGCAUCAAAAGAAAUAGUCAUGCGCUCAACCAGAAAGUCUGUAAUCAUUUUAAGGGUA [C6U A36G G75A U102A] | 0.1
24 | GUUAAUGGUCAUAGGCCAUGGAGACUAGGAGCACCAUUUCGCUGCCAGUGAGGAAAUGAACAAAUAAAAUCUAGGCCAGGCAGGCAUCAAAAGAAGUAGUCUUGCGCUCAACCAGAAAGUCUGUAAUCAUUUUAAGGGUA [C6U A23G A52G G65U G73A A96G] | 0.32
25 | GUUAAUGGUCAUAGGCCAUGGAAACUAGGUGCACCAUUUCGCUGCCAGUGAAGAAAUGAACAAAGAAAAUCUGGGCCAGGCAGGCAUCAAAAGAAUUAGUCUUGCGCUCAACCAGAAAGUCCGUAAUCAUUUUAAGGGUA [C6U A30U A96U U122C] | 0.48
26 | GUUAAUGGUCAUAGGCCAUGGAAACUAGGUGCACCAUUUCGCUGCCAGUGAAGAAAUGAACAAAGUAAAUCUGGGCCAGGCAGGCAUCAAAAGAAAUAGUCUUGCGCUCAACCAGAAAGUCGGUAAUCAUUUUAAGGGUA [C6U A30U A66U U122G] | 0.95
27 | GUUAAAGGUCAUAGGCCAUGGAAACUAGGAGCACCAUUUCGCUGCCAGUGAAGAAACGAACAAAGAAAAUCUGGGCCAGGCAGGCACCAAAAGAAAUAGUCUCGCGCUCAACCAGAAAGUCUGUAAUCAUUUUAAGGGUA [C6A U57C U87C U103C] | 0.36
28 | GUUAAUGGUCAUAGGCCAUGGAAACUAGGAGCACCAUUUCGCUGCCAGUGAUGAAAUGAACAAAGAAAAUCUGGGCCAGGCAGGCGUCAAAAGAAAUAGUCUUGCGCUCAACCAGAGAGUCUGUAAUCAUUUUAAGGGUA [C6U A52U A86G A117G] | 1.55
29 | GUUAAAGGUCAUAGGCCAUGGAAACUAGGAGCACCAGUCCGCUGCCAGUGAAGAGAUGAACAAAGAAAAUCUGGGCCAGGCAGGCACCAAAAGAAAUAGUCUUGCGCUCAGCCAGAAAGUCUGUAAUCAUUUUAAGGGUA [C6A U37G U39C A55G U87C A111G] | 0.04
30 | GUUAACAGUCAUAGGCCAUGGAGACUAGGAGCACCAUUUCGCUGCCAGUGAAGAAAUGAACAAAGAAAAUCUGGGCCAGGUAGGCAUCAAAAGAAAUAGUCCUGCGCUCAACCAGAAAGUCUGUAAUCAUUUUAUGGGUA [G7A A23G C81U U102C A135U] | 0.72
31 | GUUAACAGUCAUGGGCCUUGGAAACUAGGGGCACCACUUCGCUGCCAGUGAAGAAAUGAACAAAGGAAAUCUGGGCCAGGCAGGCAUCAAAAGAAAUAGUCUUGCGCUCAACCAGAAAGUCUGUAAUCAUUUUAAGGGUA [G7A A13G A18U A30G U37C A66G] | 1.75
32 | GUUAACAGUCAUAGGCCUUGGAAACUAGGAGCACCAUUUCGCUGCCAGUGAAGAAAUGAACAAAGAAAAUCUGGGCCAGGCAGGCAUCAAAAGAAGUAGUCUUGCGCUCAACCAGAAAGUCUGUAAUCAUUUUAAGGGUA [G7A A18U A96G] | 1.72
33 | GUUAAGGGCCAUAGGCCAUGGAAACUAGGAGCACCAUUUCGCUGCCAGUGAAGGAAUGAACAAAGAAAAUCUGGGCCAGGCAGGCGUCAAAAGAAAUUGUCUUGCGCUCAACCAGAAAGUCCGUAAUCAUUUUAAGGGUA [C6G U9C A54G A86G A98U U122C] | 0.59
34 | GUUAAGGGUCGUAGGCCAUGGAAACCAGGAGCACCAUUUCGCUGCCAGUGAAGAAACGAACAAAGAAACUCUGGGCCAGGCAGGCAUCAAUAGAAAUAGUCUUGCGCUCAACCAGAAAGUCUGUAAUCAUUUUAAGGGUA [C6G A11G U26C U57C A69C A91U] | 0.12
35 | GUUAAUGGUCAUAGGCCAUGGAAACUAGGAGCACCAUUUCGCUGCCAGUGAAGAAGUGAACAAAGAAAAUCUGGGCCAGGCAGGCAUCAAAAGAAAUAGUCUUGCGCUCAACCAGAAAGCCUGUAAUCAUUUUAAGGGCG [C6U A56G U120C U139C A140G] | 0.25
36 | GUUAACAGUCAUGGGCCAUGGAAACUAGGAGCACCAUUUCGCUGCCAGUGAAGAAAUGAACAAAGAAAAUCUGGGCCUGGCAGGCAUCAAAAGAAAUAGUCUUGCGCUCAACCAGAAAGUCUGUAAUCAUUUUAAGGGUA [G7A A13G A78U] | 0.69
37 | GUUAAUGGUCAUAGGCCAUGGAAACUAGGAGCACCAUUUCGCUGCCAGUGAAGAAAUGAACAAAGAAAAUCUGGGCCAGGCAGGCUUCAAAAGAAAUAGUCUUGCGCCCAACCAGAAAGUCUGUAAUCAUGUUAAGGGUA [C6U A86U U108C U131G] | 0.01
38 | GUUAACAGUCUUAGGCCAUGGAAACUAGGAGCACCAUUUCGCUGCCAGUGAAGAAAUGAACAGAGAAAAUCUGGGCCAGGCAGGCAUCAAAAGAAAUAGUCUUGCGCUCAACCAGAAAGUCUGUAAUCAUUUUAAGGGUA [G7A A11U A63G] | 0.97
39 | GUUAAUGGUCAUAGGCCAUGGAAACUAUGAGCACCAUUUCGCUGCCAGUGAAGAAAUGAACAAAGAAAAUCUGGGCCAGGCAGGCAUCAAAAGAAAUAGUCUUGCGCUCAACCAGAAAGUCUGUAAUCAUUUUAAGGAUA [C6U G28U G138A] | 1.4
40 | GUUAACAGUCAUGGGCCAUGGAAACUAGGAGCACCAUUUCGCUGCCUGUGAAGAAAUGAACAAAGAAGAUCUGGGCCAGGCAGGCACCAAAAGAAAUAGUCUUGCGCUCAACCAGAAAGCCUGUAGUCAUUUUAAGGGUA [G7A A13G A47U A68G U87C U120C A126G] | 0.31
41 | GUUAAUGGUCAUAGGCCAUGGAAACUAGGAGCACCAUUUCGCUGCCAGUGAAGAAAUGAACAAAGAAAAUCAGGGCCAGGCAGGCAUCAAAGGAAAUAGCCUUGCGCUCAACCAGAAAGUCUGUAAUCAUUUUAAGGGUA [C6U U72A A92G U100C] | 0.35
